PubChem BioAssay AID463173 (ICCB-Longwood Screening Facility, Harvard Medical School, 2010)
The campaign covered roughly 52,000 compounds. About 4,300 (8.3%) were called active. Cut-off read from the data, not from the text of the source: active = survival mostly below about 52% (no sharp cut-off); inactive = mostly above about 56%. Some of the results follow.

System: DeltatarO mutant
Experiment: S. aureus survival, RN4220 and DeltatarO strains – OD600, teichoic acid synthesis inhibitors, primary screen (AID 463173)
Settings: S. aureus RN4220 wild type/DeltatarO growth, OD600, 18 h, active compounds read low, screened at 18.75 µg/mL (by protocol)

SMILES	survival
Cc1cccc(OCCSc2nc3ccc(NC(=O)COc4ccccc4C)cc3s2)c1	inactive: 63%
Cc1cn2c(=O)cc(COC(=O)c3cccc(NC(=O)COc4ccccc4)c3)nc2s1	inactive: 60%
CCOC(=O)c1c(NC(=O)CSc2cn(CCNC(=O)c3ccc(OC)c(OC)c3)c3ccccc23)sc2c1CCC2	inactive: 86%
COCCNC(=O)c1cc(-c2ccccc2)on1	inactive: 100%
Cc1cc(C)n2nc(-c3ccc(Cl)cc3)nc2n1	inactive: 76%
COc1ccc(OC)c(NC(=O)c2oc3c(c2C)-c2nn(Cc4ccc(Cl)cc4)cc2CC3)c1	inactive: 97%
CC1CCN(CCCNC(=O)c2cn(C)c3ccc(S(=O)(=O)N(C)C4CCCCC4)cc3c2=O)CC1	inactive: 131%
COc1cc2c(cc1OC)C(COc1ccc(C(C)C)cc1)N(C(=O)c1ccc(S(=O)(=O)N3CCCC3)cc1)CC2 (stereo not given)	inactive: 88%
COc1ccc(N2CCN(S(=O)(=O)c3ccc4c(c3)CCCN4C(C)=O)CC2)cc1	inactive: 70%
CCC(C)n1c(SCc2c(F)cccc2Cl)nc2ccsc2c1=O (stereo not given)	inactive: 126%
COc1cc(N2C(=O)CSC23C(=O)N(Cc2ccc(C)cc2)c2ccccc23)cc(OC)c1OC (stereo not given)	inactive: 73%
Cc1ccc2c(c1)N(C(=O)CCC(=O)NCc1cccs1)CCO2	inactive: 55%
Cc1ccc(C)c(CN2C(=O)c3ccccc3S(=O)c3ccc(C(=O)N4CCN(c5ccccc5F)CC4)cc32)c1 (stereo not given)	inactive: 99%
COc1ccc(Nc2nc3cc(Cl)c(Cl)cc3n3cnnc23)cc1Cl	inactive: 75%
Cn1c(=O)oc2cc(S(=O)(=O)N3CCC(C(=O)NCc4ccc(F)cc4)CC3)ccc21	inactive: 93%
O=C(Nc1nnc(S(=O)(=O)N2CCCC2)s1)c1ccccc1Br	active: 36%
Cc1ccccc1OCCCn1c(-c2ccc(Cl)cc2)nc2ccccc2c1=O	inactive: 80%
Cc1ccccc1Cn1nnc2c(=O)[nH]c(C3CCCN(C(=O)c4ccc(F)cc4)C3)nc21 (stereo not given)	inactive: 114%
COc1ccc(NC(=O)CC2C(=O)N(c3ccc(C)cc3)C(=O)N2Cc2ccc3c(c2)OCO3)cc1 (stereo not given)	inactive: 125%
CCOC(=O)C1CCN(Cc2cn[nH]c2-c2ccc(C)cc2)CC1	inactive: 93%
CCOC(=O)c1ccc(NC(=O)CSc2nnc(CNC(=O)c3ccc(OC)cc3)n2CC)cc1	inactive: 121%
CC(C(=O)NCc1ccc2c(c1)OCO2)N(c1ccccc1)S(C)(=O)=O (stereo not given)	inactive: 70%
CC1CCc2c(sc3ncnc(NCCOCCO)c23)C1 (stereo not given)	inactive: 98%
COc1ccc(NC2CC(O)C(CO)O2)cc1 (stereo not given)	inactive: 105%
COC(=O)c1ccccc1NC(=O)c1ccc2nc(Cc3ccccc3)oc2c1	inactive: 94%
COC(=O)c1ccccc1NC(=O)c1nc(S(=O)(=O)Cc2cccc(C)c2)ncc1Cl	active: 39%
O=C(CCCn1c(=O)c2ccccc2n(Cc2ccc(F)cc2Cl)c1=O)NCCc1ccc(Cl)cc1	inactive: 80%
CC(=O)Nc1ccc(NC(=O)c2ccc(COc3ccc(Cl)cc3Cl)o2)cc1	active: 46%

SMILES	survival
Cc1cccc(NC(=O)c2c(C)cc(C)nc2SCC(=O)Nc2c(C)cc(C)cc2C)c1	inactive: 52%
Cc1ccc(-n2nc(CO)c(C(=O)NCc3cccs3)n2)cc1C	active: 39%
CCc1ccc(-c2nc3cc(NC(=O)c4cc5ccccc5cc4OC)ccc3o2)cc1	active: 11%
COC(=O)c1cc(NC(=O)[C@H](CCS(C)(=O)=O)N2Cc3ccccc3C2=O)cc(C(=O)OC)c1	inactive: 86%
COc1ccc(Br)c(C(=O)Nc2cc3c(cc2N2CCCCC2)n(C)c(=O)c(=O)n3C)c1	inactive: 69%
CCc1cc(C(=O)NC(C)c2ccccc2)no1 (stereo not given)	inactive: 60%
COc1cc(C2CC(=O)N(Cc3ccc(F)cc3)c3ccccc3S2)cc(OC)c1OC (stereo not given)	inactive: 75%
COc1cc2c(cc1OC)C(COc1ccc(F)cc1)N(C(=O)c1ccc(S(=O)(=O)N3CCCC3)cc1)CC2 (stereo not given)	inactive: 81%
CC(C)CC(=O)Nc1ccc(S(=O)(=O)Nc2cc3c(cc2N2CCOCC2)n(C)c(=O)c(=O)n3C)cc1	inactive: 76%
Cc1ccc(NC(=O)c2cn3c4c(ccc(Cl)c4c2=O)OC(C)C3)c(C)c1 (stereo not given)	inactive: 76%
CCCCc1nc2ccccc2n2c(-c3ccc(OC)cc3)c3c(=O)n(C)c(=O)n(C)c3c12	inactive: 49%
CC(C)c1ccc(NC(=O)C2CCN(c3nc(-c4ccc(C(C)C)cc4)no3)CC2)cc1	inactive: 91%
Cc1c(C(=O)N2CCC(C)CC2)c(S(=O)(=O)NCc2ccc(Br)cc2)c(C)n1C	inactive: 85%
COc1ccc(-n2ncc(C(=O)N3CCN(c4ncccn4)CC3)c2C2CCN(C(=O)OC(C)(C)C)CC2)cc1	inactive: 84%
Cc1ccccc1Nc1c(-c2ccc(Cl)s2)nc2c(C)cccn12	inactive: 69%
Cc1cc(C)cc(NC(=O)CCCN2C(=O)COc3ccc(C)cc32)c1	inactive: 68%
COc1ccc(CC(=O)NC2CCN(Cc3nnnn3C(C)(C)C)CC2)cc1OC	inactive: 86%
COc1ccc(C)cc1NC(=O)C1CCN(S(=O)(=O)c2ccc3[nH]c4c(c3c2)CCCCC4)CC1	inactive: 94%
Nc1cc(=O)nc(SCC(=O)Nc2ccc(F)cc2)n1-c1ccccc1Cl	inactive: 75%
O=C(COc1ccc([N+](=O)[O-])cc1)NCC1(N2CCOCC2)CCCCC1	inactive: 97%
CC1/C(=N/O)CC(c2ccco2)NC1c1ccco1 (stereo not given)	inactive: 101%
Oc1c(C(c2ccccc2F)N2CCCCC2)sc2nc(-c3ccco3)nn12 (stereo not given)	inactive: 89%
CC(=O)c1cccc(NC(=O)CSc2nc(=O)n(Cc3cccnc3)c3c2CCC3)c1	inactive: 75%
O=C(Cn1cc(SCc2ccccc2)c2ccccc21)N1CCCCC1	inactive: 85%
COc1ccc(-c2nc(C)c(CCNC(=O)C(=O)Nc3c(C)cccc3C)s2)cc1OC	inactive: 85%
CSc1ccc(CNC(=O)C2CCN(c3nnc(-n4cccc4CNc4ccc(C)cc4)s3)CC2)cc1	inactive: 77%
N#Cc1c(-n2ncnc2-c2ccc(Br)cc2)sc2c1CCCCC2	active: 2%
